The whole screen tested about 310,000 compounds, of which about 14,000 (4.5%) showed an effect of 50% or more. The effect is printed as a negative number. The list shows a part of the results.
Target: human ether-à-go-go-related gene (hERG) potassium channel (human, UniProt Q12809)
Assay: primary screen, population patch clamp on CHO cells stably expressing hERG
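Note: peak tail current of the secondary pulse compared with the same well before compound.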

Sequence of human ether-à-go-go-related gene (hERG) potassium channel (Q12809 whole entry, looked up): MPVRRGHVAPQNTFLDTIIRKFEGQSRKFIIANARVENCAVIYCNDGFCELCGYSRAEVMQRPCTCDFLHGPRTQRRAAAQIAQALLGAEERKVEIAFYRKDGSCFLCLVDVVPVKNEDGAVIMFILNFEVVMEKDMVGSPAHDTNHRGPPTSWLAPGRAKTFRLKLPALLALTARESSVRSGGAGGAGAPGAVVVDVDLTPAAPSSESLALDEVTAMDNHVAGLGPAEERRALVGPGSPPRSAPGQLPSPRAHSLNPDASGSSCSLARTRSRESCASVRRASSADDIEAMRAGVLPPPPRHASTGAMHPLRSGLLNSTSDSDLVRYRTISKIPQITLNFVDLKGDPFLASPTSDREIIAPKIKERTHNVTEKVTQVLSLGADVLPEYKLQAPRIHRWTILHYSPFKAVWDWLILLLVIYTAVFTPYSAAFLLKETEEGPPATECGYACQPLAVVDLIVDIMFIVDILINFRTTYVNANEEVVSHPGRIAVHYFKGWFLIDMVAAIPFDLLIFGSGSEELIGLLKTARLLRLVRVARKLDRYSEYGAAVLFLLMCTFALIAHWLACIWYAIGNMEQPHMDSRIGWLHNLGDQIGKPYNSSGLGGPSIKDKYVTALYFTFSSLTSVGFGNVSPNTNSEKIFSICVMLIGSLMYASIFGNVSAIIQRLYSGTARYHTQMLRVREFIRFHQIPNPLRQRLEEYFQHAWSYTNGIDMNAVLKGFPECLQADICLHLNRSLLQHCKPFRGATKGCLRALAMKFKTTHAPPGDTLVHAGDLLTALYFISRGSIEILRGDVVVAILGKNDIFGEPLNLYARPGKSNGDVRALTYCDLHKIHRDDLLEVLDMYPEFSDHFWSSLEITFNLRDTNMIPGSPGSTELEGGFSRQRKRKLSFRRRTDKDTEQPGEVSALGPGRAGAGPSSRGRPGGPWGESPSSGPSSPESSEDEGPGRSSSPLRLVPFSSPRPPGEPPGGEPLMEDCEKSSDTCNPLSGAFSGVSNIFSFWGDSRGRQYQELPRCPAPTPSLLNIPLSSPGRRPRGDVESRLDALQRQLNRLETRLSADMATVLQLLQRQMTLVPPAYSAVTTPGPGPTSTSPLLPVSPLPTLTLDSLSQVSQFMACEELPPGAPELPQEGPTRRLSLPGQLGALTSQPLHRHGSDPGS

Q: With CCOC(=O)c1c(/N=C/c2cc(C)ccc2O)sc2c1CCC2 as the molecule, how does the “hERG current change (%, negative = inhibition) at 10uM” value read?
A: -0.769%

Q: With Cc1ccc(-c2nc3ccccc3s2)cc1S(=O)(=O)N1CCOCC1 as the molecule, how does the “hERG current change (%, negative = inhibition) at 10uM” value read?
A: -7.03%

Q: C=CCn1c(-c2cccn(Cc3ccc(Cl)cc3Cl)c2=O)n[nH]c1=S was tested. Which “hERG current change (%, negative = inhibition) at 10uM” value did it give?
A: 7.94%

Q: With O=C(NNc1cccc([N+](=O)[O-])c1)/C(=C\c1cccnc1)NC(=O)c1ccccc1 as the molecule, how does the “hERG current change (%, negative = inhibition) at 10uM” value read?
A: -30.6%

Q: How did the “hERG current change (%, negative = inhibition) at 10uM” value turn out when C/C(=N\NC(=S)NC(C)C)c1ccc(-n2ccnc2)cc1 was run?
A: -16.6%

Q: How did the “hERG current change (%, negative = inhibition) at 10uM” value turn out when CC1(C(=O)O)CCC(C(=O)Nc2ccc3ccccc3c2)C1(C)C (stereo not drawn) was run?
A: 8.02%

Q: Which “hERG current change (%, negative = inhibition) at 10uM” value does the source give for COC(=O)c1ccccc1NC(=O)CNc1cc(Cl)ccc1N1CCOCC1 here?
A: -0.508%

Q: How did the “hERG current change (%, negative = inhibition) at 10uM” value turn out when CSc1nc(N2CCOCC2)c2c(c1C#N)CC(C)(C)OC2 was run?
A: -28.3%

Q: Which “hERG current change (%, negative = inhibition) at 10uM” value does the source give for O=C(O)C1C2CCC(C2)C1C(=O)NCc1ccccn1 (stereo not drawn) here?
A: 16.1%

Q: COC(=O)/C(C#N)=C/c1c(Oc2cc(C)cc(C)c2)nc2ccccn2c1=O was tested. Which “hERG current change (%, negative = inhibition) at 10uM” value did it give?
A: -9.71%

Q: With CCOc1ccc(NS(=O)(=O)c2ccc(NC(=S)NC(=O)C(C)C)cc2)cc1 as the molecule, how does the “hERG current change (%, negative = inhibition) at 10uM” value read?
A: 9.5%

Q: For COc1ccccc1N1C(=O)C=C(Sc2nc(C)cc(C)n2)C1=O, which “hERG current change (%, negative = inhibition) at 10uM” value is on record?
A: 12.6%

Q: CC1(C)c2[nH]c3ccccc3c2C[C@@H]2C(=O)N(c3ccc(F)cc3F)C(=O)N21 was tested. Which “hERG current change (%, negative = inhibition) at 10uM” value did it give?
A: 10.4%

Q: For CCCCCCC(C)OC(=O)Nc1cccc2ccccc12 (stereo not drawn), which “hERG current change (%, negative = inhibition) at 10uM” value is on record?
A: 14.5%

Q: With O=C(CC(=O)c1cccc([N+](=O)[O-])c1)Nc1ccccc1Cl as the molecule, how does the “hERG current change (%, negative = inhibition) at 10uM” value read?
A: -1.22%

Q: With Cc1ccc(OCc2nnc(SCc3ccc(C#N)cc3)n2-c2ccc(C)cc2)cc1 as the molecule, how does the “hERG current change (%, negative = inhibition) at 10uM” value read?
A: -29.6%

Q: With Cc1ccnc(-n2c(C)cc(C=O)c2C)c1 as the molecule, how does the “hERG current change (%, negative = inhibition) at 10uM” value read?
A: 14.5%

Q: How did the “hERG current change (%, negative = inhibition) at 10uM” value turn out when COc1ccc(CC(=O)Nc2cccc3ccccc23)cc1OC was run?
A: 2.53%

Q: For NS(=O)(=O)c1cc2c(cc1Cl)NCNS2(=O)=O, which “hERG current change (%, negative = inhibition) at 10uM” value is on record?
A: -12.3%

Q: For COc1cc2c(cc1OC)C(c1cccs1)N(C(=O)C(C)C)CC2 (stereo not drawn), which “hERG current change (%, negative = inhibition) at 10uM” value is on record?
A: -19.2%

Q: For COc1cc(NS(=O)(=O)c2ccc(NC(=O)Cc3ccccc3)cc2)nc(OC)n1, which “hERG current change (%, negative = inhibition) at 10uM” value is on record?
A: 16.1%

Q: How did the “hERG current change (%, negative = inhibition) at 10uM” value turn out when Cc1ccc(-n2nc(CC#N)c(C#N)c2N)cc1Cl was run?
A: -3.1%

Q: With COc1cc(C)c(CN2CCC(n3nccc3NC(=O)C3CC3)CC2)cc1C as the molecule, how does the “hERG current change (%, negative = inhibition) at 10uM” value read?
A: -52.7%

Q: For Cn1cc(CN2CCC(n3nccc3NC(=O)c3ccccc3Cl)CC2)cn1, which “hERG current change (%, negative = inhibition) at 10uM” value is on record?
A: -32.9%

Q: How did the “hERG current change (%, negative = inhibition) at 10uM” value turn out when c1ccc2c(-c3nc(-c4ccncc4)no3)cccc2c1 was run?
A: 10.6%

Q: Which “hERG current change (%, negative = inhibition) at 10uM” value does the source give for O=C(c1ccc(CS(=O)c2cccc(Cl)c2)o1)N1CCCCCC1 (stereo not drawn) here?
A: 11.6%

Q: With Cc1cc(C)n2ncc(C(=O)Nc3ccc(Cl)c(Cl)c3)c2n1 as the molecule, how does the “hERG current change (%, negative = inhibition) at 10uM” value read?
A: 12.7%

Q: How did the “hERG current change (%, negative = inhibition) at 10uM” value turn out when CN1CCN(c2ccccc2NC(=O)c2ccc([N+](=O)[O-])o2)CC1 was run?
A: -69.6%

Q: For COC(=O)Nc1c(C)n(C)n(-c2ccccc2)c1=O, which “hERG current change (%, negative = inhibition) at 10uM” value is on record?
A: -8.11%

Q: Which “hERG current change (%, negative = inhibition) at 10uM” value does the source give for CC1(C)CC(=O)C([N+](=O)[O-])=C(NCCCO)C1 here?
A: 15.2%

Q: Which “hERG current change (%, negative = inhibition) at 10uM” value does the source give for N#Cc1cccc(CS(=O)(=O)c2ccc(Cl)cc2)c1 here?
A: -3.29%

Q: Which “hERG current change (%, negative = inhibition) at 10uM” value does the source give for Cc1ccc(NC(=O)Cc2ncon2)cc1Cl here?
A: -1.71%

Q: For CS(=O)(=O)c1cccc(C(=O)Nc2ccc(-c3nc4ccccc4[nH]3)cc2)c1, which “hERG current change (%, negative = inhibition) at 10uM” value is on record?
A: 11.5%

Q: With COc1cc2c(cc1OC)CN(C(=S)Nc1ccc(OC(F)F)cc1)CC2 as the molecule, how does the “hERG current change (%, negative = inhibition) at 10uM” value read?
A: -38.8%

Q: With Cc1cccc(-n2cc[nH]c2=S)c1C as the molecule, how does the “hERG current change (%, negative = inhibition) at 10uM” value read?
A: 15.9%

Q: With O=C(O)/C=C/c1ccc(-c2cccc(C(F)(F)F)c2)o1 as the molecule, how does the “hERG current change (%, negative = inhibition) at 10uM” value read?
A: 22.7%

Q: Which “hERG current change (%, negative = inhibition) at 10uM” value does the source give for COc1cc2c(cc1OC)CN(c1ccc(F)cc1[N+](=O)[O-])CC2 here?
A: -27.9%

Q: Which “hERG current change (%, negative = inhibition) at 10uM” value does the source give for COc1ccc(S(=O)(=O)N(CCc2ccccc2)CC(=O)O)cc1OC here?
A: 5.34%

Q: For COc1ccc(NC(=O)CC(C)C)c(OC)c1, which “hERG current change (%, negative = inhibition) at 10uM” value is on record?
A: 18.3%

Q: How did the “hERG current change (%, negative = inhibition) at 10uM” value turn out when CCOP(=O)(OCC)c1ccc2c(c1)C(=O)c1ccccc1CC2 was run?
A: -0.224%

Q: With COC(=O)c1ccccc1NC(=O)CSc1nc(-c2ccco2)cc(C(F)(F)F)n1 as the molecule, how does the “hERG current change (%, negative = inhibition) at 10uM” value read?
A: -0.792%

Q: For CCc1cc(C(=O)NNC(=S)NC2CCCCC2)cs1, which “hERG current change (%, negative = inhibition) at 10uM” value is on record?
A: 8%

Q: How did the “hERG current change (%, negative = inhibition) at 10uM” value turn out when CCn1ccnc1CN1CCc2c([nH]c3ccccc23)C1CC(C)C (stereo not drawn) was run?
A: -67.9%

Q: For O=C(CSc1cn(Cc2ccccc2)c2ccccc12)N1CCOCC1, which “hERG current change (%, negative = inhibition) at 10uM” value is on record?
A: -25.1%

Q: Which “hERG current change (%, negative = inhibition) at 10uM” value does the source give for O=C(NC(Cc1ccccc1)C(=O)NC1CC1)OCc1ccccc1 (stereo not drawn) here?
A: 44.8%

Source: article PMC4336329 (PLoS ONE, 2015)
